Several values for one entry are separate records, joined by “and”; a condition that tells them apart may be missing. Identical values can stand only once. Hit rate of the full screen: of about 150,000 compounds, about 6,500 (4.3%) were called active. Inconclusive means that the source gave no clear call. Such entries were picked first, then a sample of the others. Calls come from the whole dose curve; as a rule, active = well fitted inhibition curve with a large enough effect (not every such curve was filed as active); inconclusive = small, poorly fitted or top-dose-only effect, or another doubt; inactive = no such curve, though single readings can be large or run the other way. A potency beside an inconclusive call is a rough fit, not a confirmed value. More than one record can exist for a structure, and the calls need not agree.
Target: 15-hydroxyprostaglandin dehydrogenase [NAD(+)] (Homo sapiens) (UniProt P15428)
Chain of UniProt P15428 (P15428 whole entry, looked up): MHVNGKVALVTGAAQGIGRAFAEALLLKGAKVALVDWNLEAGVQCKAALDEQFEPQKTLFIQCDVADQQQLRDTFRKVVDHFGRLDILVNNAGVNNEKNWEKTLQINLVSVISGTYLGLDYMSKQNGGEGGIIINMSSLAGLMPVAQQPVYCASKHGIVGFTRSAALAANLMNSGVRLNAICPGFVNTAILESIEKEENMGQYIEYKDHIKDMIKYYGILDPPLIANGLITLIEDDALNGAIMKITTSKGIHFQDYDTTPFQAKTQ
Test: qHTS Assay for Inhibitors of HPGD (15-Hydroxyprostaglandin Dehydrogenase)
Conditions: purified HPGD, NADH fluorescence kinetic, PGE2 substrate; activity change, negative = inhibition: stronger effect = lower value
In short: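 20 nM HPGD preincubated 15 min at room temperature with compound in 50 mM Tris-HCl pH 8, 0.01% Tween 20. Started with 1 mM NAD+ and 30 uM prostaglandin E2; NADH fluorescence (360/450 nm) read 5 times over 30-s intervals, last minus first.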
% is set by controls: 0 for no effect and ±100 for the full control effect; potency is the fitted concentration of half-maximal effect; tags give direction and shape of the fitted curve.

Potency, active:
COC(=O)c1cc(NC(=O)CSc2nc(C)cc(=O)[nH]2)cc(C(=O)OC)c1 14.1 µM
CC(C)(C)c1ccc(/C=N/Nc2ccc(C(=O)O)cc2)cc1 14.1 µM
COC(=O)c1ccc(NC(=S)N2CCN(Cc3ccc(Cl)cc3)CC2)cc1 39.8 µM
COC(=O)c1ccc(C#CC(NP(=O)(c2ccccc2)c2ccccc2)c2ccccc2)cc1 (configuration not stated) 25.1 µM
O=[N+]([O-])c1cc(/C=N/O)ccc1Sc1ccccc1 25.1 µM
Cc1ccc(NC(=O)c2ccc(Cl)c(N3C(=O)C=CC3=O)c2)cc1 3.55 µM
O=C(/C=C/c1ccc(O)c(O)c1)OC(Cc1ccc(O)c(O)c1)C(=O)O (configuration not stated) 22.4 µM
Cc1noc(C)c1S(=O)(=O)N1CCCC(C(=O)Nc2nccs2)C1 (configuration not stated) 35.5 µM
Cc1cc(C)n(C(C[N+](=O)[O-])c2ccc(Cl)cc2)n1 (configuration not stated) 7.94 µM
CCOC(=O)c1ccc(-n2c(=S)sc3c(=O)[nH]c(C)nc32)cc1 6.31 µM
O=C(Cc1ccc2c(c1)CCCC2)Nc1ccccc1Br 25.1 µM
BrC(=C\c1ccccc1)/C=N/Nc1nc(N2CCOCC2)nc(N2CCOCC2)n1 15.8 µM
CN1CCN(C(=O)CCCOc2ccc(Cl)cc2Cl)CC1 20 µM
CCC(=O)n1nc(-c2ccco2)nc1SCc1ccccc1 12.6 µM
O=[N+]([O-])c1cccc(-c2n[nH]c(=S)n2Cc2ccccc2)c1 25.1 µM

Potency, inconclusive:
CC(OC(=O)c1cccs1)C(=O)NCC1CCCO1 (configuration not stated) 31.6 µM [inhibitor, partial curve]
CCCOc1ccc2cc(-c3ccccn3)c(=O)oc2c1 25.1 µM [inhibitor, partial curve]
Cc1nc(Cl)sc1C(=O)O 28.2 µM [inhibitor, single point]
COc1ccc(Oc2ncc3nc(-c4ccccc4)c(=O)n(C4CC4)c3n2)cc1 39.8 µM [inhibitor, single point]
OC[C@@H]1[C@@H](c2ccc(Cl)cc2)C(c2ccccc2)=NN1c1ccccc1 28.2 µM [inhibitor, partial curve]
CCn1c(-c2cc3c(C(F)(F)F)nn(C)c3s2)n[nH]c1=S 17.8 µM [inhibitor, partial curve]
O=S(=O)(c1ccc2c(c1)C(=NO)c1cc(S(=O)(=O)N3CCCCC3)ccc1-2)N1CCCCC1 31.6 µM [inhibitor, partial curve]
COC(=O)c1c(-c2ccccc2)csc1N 39.8 µM [inhibitor, single point]
CC(C)CN1C(=O)/C(=C/c2ccco2)NC1=S 28.2 µM [inhibitor, single point]
CN(C)c1ccc2c(O)cc(=O)n(C)c2c1 31.6 µM [inhibitor, partial curve]
COc1cc(/C=C/C(=O)NCCN2CCOCC2)cc(OC)c1OC 28.2 µM [inhibitor, partial curve]
O=C(Nc1cccc(-c2nc3ccccc3s2)c1)c1cc(=O)c2ccccc2o1 14.1 µM [inhibitor, partial curve, poor fit]
C=CCn1c(SCc2nc3ccccc3c(=O)[nH]2)nnc1-c1cc2cc(Cl)ccc2o1 25.1 µM [inhibitor, partial curve]
Cc1nc(NC(=O)c2ccco2)sc1-c1csc(Nc2ccc(Cl)cc2Cl)n1 12.6 µM [inhibitor, partial curve]
N/C(=N\OC(=O)c1cc(Cl)ccc1Cl)c1ccccn1 31.6 µM [inhibitor, partial curve]
CCOC(=O)c1c(NC(=O)CCc2ccc(CC)o2)sc(C)c1C 35.5 µM [inhibitor, single point]
COc1cc(OC)cc(C(=O)NC(=S)NNC(=O)Cc2cccs2)c1 25.1 µM [inhibitor, partial curve]
CCC(C)[C@H](NC(=O)OC(C)(C)C)C(=O)N/N=C/c1ccc2cc(OC)ccc2n1 (some centres not stated) 25.1 µM [inhibitor, partial curve]
CCOc1ccc(S(=O)(=O)NCc2ccc(F)cc2)c2cccnc12 25.1 µM [inhibitor, partial curve]
O=c1c(-c2cccs2)nc2cnc(N3CCNCC3)nc2n1-c1ccccc1 31.6 µM [inhibitor, single point]
O=C1NC(c2ccncc2)Nc2sc3c(c21)CCCC3 (configuration not stated) 28.2 µM [inhibitor, partial curve]
COC(=O)c1ccc(S(=O)(=O)NCCSc2nnc3c4ccccc4n(C)c3n2)cc1 15.8 µM [inhibitor, partial curve, poor fit]
C/C(=N\NC(=O)c1cccc(N/N=C(\C)c2ccccc2)c1)c1ccccc1 28.2 µM [inhibitor, single point]
COc1ccccc1-c1ccc2ncnc(NCc3cccnc3)c2c1 0.447 µM [inhibitor, partial curve]
O=C(c1ccco1)N1CCN(C(=O)c2cc3c(s2)-c2ccccc2OC3)CC1 28.2 µM [inhibitor, partial curve]
COc1ccccc1CNc1ncncc1-c1ccc(N(C)C)cc1 14.1 µM [inhibitor, partial curve]
CCOC(=O)N1CCN(S(=O)(=O)c2ccc(C(=O)Nc3ccc4c(c3)C(=O)NC4=O)cc2)CC1 28.2 µM [inhibitor, partial curve]
COc1ccccc1CN(Cc1cc2cc3c(cc2[nH]c1=O)OCCO3)Cc1nnnn1Cc1ccco1 35.5 µM [inhibitor, partial curve]
Cc1ccc(-c2nnc3c(C(F)(F)F)nc4ccccc4n23)cc1 25.1 µM [inhibitor, partial curve]
c1ccc(-c2nnc(SCc3cn4ccsc4n3)o2)cc1 20 µM [inhibitor, partial curve]
CCOc1ccccc1C(=O)Nc1cccc(-c2nnc(-c3ccccc3)o2)c1 31.6 µM [inhibitor, single point]
CN(C)N1C(N)=C(C#N)C(c2cccc3ccccc23)C2=C1CC(c1ccccc1)CC2=O (configuration not stated) 35.5 µM [inhibitor, single point]
Cc1ccc(OCc2cn3cccnc3n2)cc1 35.5 µM [inhibitor, partial curve]
CC(=O)N1CCc2cc(C(=O)CN3CCC(C)CC3)ccc21 31.6 µM [inhibitor, single point]
CCOc1cc(C(=O)Nc2c(C)ccc3nsnc23)cc(OCC)c1OCC 25.1 µM [inhibitor, partial curve]

Activity change, negative = inhibition, inactive:
Cc1cc(C)c(S(=O)(=O)N2CCN(C)CC2)c(C)c1 -1.56%
Cc1ccccc1OC1C(=O)N(Cc2ccc3c(c2)OCO3)C1c1sccc1C (configuration not stated) -18.6%
COC(=O)[C@H]1[C@@H](C)N(Cc2ccccc2)C(=O)N[C@H]1c1cccc(C(F)(F)F)c1 -7.54%
O=C(CN1CCN(c2ccccn2)CC1)Nc1ccc(OCc2ccccc2)cc1 -8.44%
CCC(=O)NC(/C=C/c1ccccc1)c1cc([N+](=O)[O-])c2cccnc2c1O (configuration not stated) -27.2%
CCC(=O)OCCn1c(=O)c2cc3c(=O)n(CCOC(=O)CC)c(=O)c3cc2c1=O -3.5%
COc1ccc(NC(=O)CC(=O)Nc2ccc(OC)cc2OC)c(OC)c1 2.09%
Cc1cc(NC(=O)CN2CC3CC(C2)c2cccc(=O)n2C3)nc2c1c(=O)oc1ccccc12 (configuration not stated) -0.301%
c1ccc(SCCc2ccncc2)cc1 -10.5% and -7.44%
Cc1ccc2[nH]c3c(c2c1)CN(C)CC3 -16.4%
CS(=O)(=O)N(CC(=O)NCCC1=CCCCC1)c1ccc2c(c1)OCO2 -6.96%
CCN(CC)c1ccc(/C=c2\sc3nnc(-c4ccccc4Cl)n3c2=O)cc1 -5.78%
CCc1ccccc1NC(=O)CC(O)(C(=O)OC)C(F)(F)F (configuration not stated) 0.84%
COCCN(CCOC)S(=O)(=O)c1ccc(C(=O)Nc2nc(-c3ccccc3)c(C(=O)c3ccccc3)s2)cc1 -20.6%
CCCN(CCC)C(=O)CSc1nc2ccccc2c(=O)n1C1CCCC1 -11.2%
Nc1cccc(Cl)c1N1CCOCC1 -11.6%
COc1cccc(NC(=O)C(NCC(C)(C)CN(C)C)c2ccccc2)c1 (configuration not stated) 9.65%
CCOC(=O)C1CCN(C(=O)CN2C(=O)C(CC)Oc3ccccc32)CC1 (configuration not stated) 4.72%
O=C(NCCN1CCN(Cc2ccccc2)CC1)C1c2ccccc2C(=O)N2CCc3ccccc3C12 (configuration not stated) 0.401%
COc1ccc2c(c1)C(=O)[C@H](OC(=O)Nc1ccc(OC(F)F)cc1)[C@@H](c1ccc(OC)c(Br)c1)O2 -8.26%
COc1ccc(Cn2c(CCC(=O)N3CCN(c4ccccn4)CC3)nc3ncccc3c2=O)cc1 -12.8%
O=C(CSc1nnc(-c2ccc(S(=O)(=O)N3CCOCC3)cc2)o1)c1ccccc1F -11.4%
